Reference: patent publication US20240336682A1 (SHENGHE CHINA BIOPHARMACEUTICAL, published 2024)

How the values were obtained:
Human-CD24-His = target: T1, Human-CD24-His (human, UniProt P25063 27-59); assay: ELISA, Human-CD24-His coated at 1 ug/mL, HRP goat anti-human IgG-Fc
T1 construct: also called CD24 protein; not shown: His tag
T1 chain (looked up): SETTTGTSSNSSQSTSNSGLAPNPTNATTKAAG
Method: Human-CD24-His was diluted to 1 μg/mL with PBS buffer at pH 7.4, added into the 96-well ELISA plate at 100 μL per well, coated overnight at 4° C., and blocked with 1% BSA blocking solution for 1 hour. The plate was washed 3 times with PBST, and the constructed antibodies were diluted to 20 μg/mL with 0.5% BSA sample diluent as the starting concentration, and then diluted by 3-fold gradient (11 gradients in total) and incubated at 37° C. for 1 h at 100 μL per well. The plate was washed 3 times with PBST, and then HRP-labelled goat anti-human IgG-Fc (jackson Cat: 109-035-098) was diluted with the sample diluent at 1:10000. 100 μL was added into each well, and incubated at room temperature for 1 hour. A negative control (blank well and IgG1 isotype control) and a positive control were set, and the positive control was a CD24 monoclonal antibody (CD24 sequence consists of SEQ ID No. 12 and SEQ ID No. 34). The plate was washed 4 times with PBST, and 100 μL of TMB substrate was added into each well, and incubated at room temperature without light for 10 minutes. 100 μL of 1 M HCl solution was added into each well to terminate the color development reaction. The absorbance value of each well in the 96-well plate was determined by selecting the wavelength of 450 nm and the reference wavelength of 570 nm on a multifunctional enzyme marker, and the absorbance value (OD)=OD₄₅₀ₙₘ−OD₅₇₀ₙₘ. The logarithm of the concentration of the constructed antibodies were taken as the abscissa, and the measured absorbance value of each well was taken as the ordinate, and the Sigmoidaldose-response (Variable Slope) method (GraphPad Prism software, GraphPad Software, San Diego, California) was selected for nonlinear regression to obtain the binding curve of the target antibodies to the CD24 protein.

TGFβ1 = target: T2, TGFβ1 (UniProt P01137 part only, limits assumed); assay: ELISA, TGFb1 coated at 1 ug/mL, HRP goat anti-human IgG-Fc
TGFβ1, sequence (P01137 279-390 limits assumed): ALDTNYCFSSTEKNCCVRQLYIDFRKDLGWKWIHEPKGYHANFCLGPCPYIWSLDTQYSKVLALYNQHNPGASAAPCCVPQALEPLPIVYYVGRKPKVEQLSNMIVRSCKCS
T2 construct: also called TGFβ1 protein
Method: TGFβ1 was diluted to 1 μg/mL with PBS buffer at pH 7.4, added into the 96-well ELISA plate at 100 μL per well, coated overnight at 4° C., and blocked with 1% BSA blocking solution for 1 hour. The plate was washed 3 times with PBST, and the constructed expressing antibodies were diluted to 20 µg/mL with 0.5% BSA sample diluent as the starting concentration, and then diluted by 3-fold gradient (11 gradients in total). A negative control (blank well and IgG1 isotype control) and a positive control were set, and the positive control was TGF-βR2 (Acro, Cat: TG2-H5252), and incubated at 37° C. for 1 h at 100 μL per well. The plate was washed 3 times with PBST, and then HRP-labelled goat anti-human IgG-Fc was diluted with the sample diluent at 1:10000. 100 μL was added into each well, and incubated at room temperature for 1 hour. The plate was washed 4 times with PBST, and 100 μL of TMB substrate was added into each well, and incubated at room temperature without light for 10 minutes. 100 μL of 1 M HCl solution was added into each well to terminate the color development reaction. The absorbance value of each well in the 96-well plate was determined by selecting the wavelength of 450 nm and the reference wavelength of 570 nm on a multifunctional enzyme marker, and the absorbance value (OD)=OD₄₅₀ₙₘ−OD₅₇₀ₙₘ. The logarithm of the concentration of the constructed antibodies were taken as the abscissa, and the measured absorbance value of each well was taken as the ordinate, and the Sigmoidaldose-response (Variable Slope) method (GraphPad Prism software, GraphPad Software, San Diego, California) was selected for nonlinear regression to obtain the binding curve of the target antibodies to the TGFβ1 protein.

B1: DNT-F (other)
light 1: QVQLVQSGSELKKPGASVKVSCKASGYIFTDYAIHWVRQAPGQGLEWMGFINTATGEPTYADDFKGRFVFSLDTSVSTAYLQISSLKAEDTAVYFCTSGVHWGQGTLVTVSSRTVAAPSVFIFPPSDEQLKSGTASVVCLLNNFYPREAKVQWKVDNALQSGNSQESVTEQDSKDSTYSLSSTLTLSKADYEKHKVYACEVTHQGLSSPVTKSFNRGECGGGGSGGGGSGGGGSGGGGSEVQLVESGGGLVQPGGSLRLSCAASGITFSRSVMGWFRQAPGKLRELVAGITSDDNTDYADSVKGRFTISRDNSKNTLYLQMNSLRAEDTAVYYCNILPDSRLGWGQGTLVTVSS
heavy 1: DIQMTQSPSTLSASVGDRVTITCSASSSVSSMHWYQQKPGKAPKLLIYSTSNLASGVPSRFSGSGSGTEYTLTISSLQPDDFATYYCHHWTSYMYTFGGGTKVEIK[human IgG1 constant region with changes not spelt out]GGSGGGGSGGGGSGGGGSGIPPHVQKSVNNDMIVTDNNGAVKFPQLCKFCDVRFSTCDNQKSCMSNCSITSICEKPQEVCVAVWRKNDENITLETVCHDPKLPYHDFILEDAASPKCIMKEKKKPGETFFMCSCSSDECNDNIIFSEEYNTSNPD
heavy 2: QVQLVQSGSELKKPGASVKVSCKASGYIFTDYAIHWVRQAPGQGLEWMGFINTATGEPTYADDFKGRFVFSLDTSVSTAYLQISSLKAEDTAVYFCTSGVHWGQGTLVTVSS[human IgG1 constant region with changes not spelt out]GGSGGGGSGGGGSGGGGSGIPPHVQKSVNNDMIVTDNNGAVKFPQLCKFCDVRFSTCDNQKSCMSNCSITSICEKPQEVCVAVWRKNDENITLETVCHDPKLPYHDFILEDAASPKCIMKEKKKPGETFFMCSCSSDECNDNIIFSEEYNTSNPD
light 2: DIQMTQSPSTLSASVGDRVTITCSASSSVSSMHWYQQKPGKAPKLLIYSTSNLASGVPSRFSGSGSGTEYTLTISSLQPDDFATYYCHHWTSYMYTFGGGTKVEIKRTVAAPSVFIFPPSDEQLKSGTASVVCLLNNFYPREAKVQWKVDNALQSGNSQESVTEQDSKDSTYSLSSTLTLSKADYEKHKVYACEVTHQGLSSPVTKSFNRGEC
notes: also called constructed antibody DNT-F; trifunctional antibody
EC50 (read off the curve) (Human-CD24-His): ~0.03 µg/mL

B2: DNT-B (other)
light: DIQMTQSPSTLSASVGDRVTITCSASSSVSSMHWYQQKPGKAPKLLIYSTSNLASGVPSRFSGSGSGTEYTLTISSLQPDDFATYYCHHWTSYMYTFGGGTKVEIKRTVAAPSVFIFPPSDEQLKSGTASVVCLLNNFYPREAKVQWKVDNALQSGNSQESVTEQDSKDSTYSLSSTLTLSKADYEKHKVYACEVTHQGLSSPVTKSFNRGEC
heavy: EVQLVESGGGLVQPGGSLRLSCAASGITFSRSVMGWFRQAPGKLRELVAGITSDDNTDYADSVKGRFTISRDNSKNTLYLQMNSLRAEDTAVYYCNILPDSRLGWGQGTLVTVSSGGGGSGGGGSGGGGSQVQLVQSGSELKKPGASVKVSCKASGYIFTDYAIHWVRQAPGQGLEWMGFINTATGEPTYADDFKGRFVFSLDTSVSTAYLQISSLKAEDTAVYFCTSGVHWGQGTLVTVSS[human IgG1 constant region not spelt out]GGSGGGGSGGGGSGGGGSGIPPHVQKSVNNDMIVTDNNGAVKFPQLCKFCDVRFSTCDNQKSCMSNCSITSICEKPQEVCVAVWRKNDENITLETVCHDPKLPYHDFILEDAASPKCIMKEKKKPGETFFMCSCSSDECNDNIIFSEEYNTSNPD
notes: also called constructed antibody DNT-B; trifunctional antibody
EC50 (read off the curve) (Human-CD24-His): ~0.2 µg/mL
EC50 (read off the curve) (TGFβ1): ~0.02 µg/mL

B3: DNT-A (other)
light: EVQLVESGGGLVQPGGSLRLSCAASGITFSRSVMGWFRQAPGKLRELVAGITSDDNTDYADSVKGRFTISRDNSKNTLYLQMNSLRAEDTAVYYCNILPDSRLGWGQGTLVTVSSGGGGSGGGGSGGGGSDIQMTQSPSTLSASVGDRVTITCSASSSVSSMHWYQQKPGKAPKLLIYSTSNLASGVPSRFSGSGSGTEYTLTISSLQPDDFATYYCHHWTSYMYTFGGGTKVEIKRTVAAPSVFIFPPSDEQLKSGTASVVCLLNNFYPREAKVQWKVDNALQSGNSQESVTEQDSKDSTYSLSSTLTLSKADYEKHKVYACEVTHQGLSSPVTKSFNRGEC
heavy: QVQLVQSGSELKKPGASVKVSCKASGYIFTDYAIHWVRQAPGQGLEWMGFINTATGEPTYADDFKGRFVFSLDTSVSTAYLQISSLKAEDTAVYFCTSGVHWGQGTLVTVSS[human IgG1 constant region not spelt out]GGSGGGGSGGGGSGGGGSGIPPHVQKSVNNDMIVTDNNGAVKFPQLCKFCDVRFSTCDNQKSCMSNCSITSICEKPQEVCVAVWRKNDENITLETVCHDPKLPYHDFILEDAASPKCIMKEKKKPGETFFMCSCSSDECNDNIIFSEEYNTSNPD
notes: also called constructed antibody DNT-A; trifunctional antibody
EC50 (read off the curve) (Human-CD24-His): ~0.2 µg/mL

B4: DNT-C (other)
light: DIQMTQSPSTLSASVGDRVTITCSASSSVSSMHWYQQKPGKAPKLLIYSTSNLASGVPSRFSGSGSGTEYTLTISSLQPDDFATYYCHHWTSYMYTFGGGTKVEIKRTVAAPSVFIFPPSDEQLKSGTASVVCLLNNFYPREAKVQWKVDNALQSGNSQESVTEQDSKDSTYSLSSTLTLSKADYEKHKVYACEVTHQGLSSPVTKSFNRGECGGGGSGGGGSGGGGSGGGGSEVQLVESGGGLVQPGGSLRLSCAASGITFSRSVMGWFRQAPGKLRELVAGITSDDNTDYADSVKGRFTISRDNSKNTLYLQMNSLRAEDTAVYYCNILPDSRLGWGQGTLVTVSS
heavy: QVQLVQSGSELKKPGASVKVSCKASGYIFTDYAIHWVRQAPGQGLEWMGFINTATGEPTYADDFKGRFVFSLDTSVSTAYLQISSLKAEDTAVYFCTSGVHWGQGTLVTVSS[human IgG1 constant region not spelt out]GGSGGGGSGGGGSGGGGSGIPPHVQKSVNNDMIVTDNNGAVKFPQLCKFCDVRFSTCDNQKSCMSNCSITSICEKPQEVCVAVWRKNDENITLETVCHDPKLPYHDFILEDAASPKCIMKEKKKPGETFFMCSCSSDECNDNIIFSEEYNTSNPD
notes: also called constructed antibody DNT-C; trifunctional antibody
EC50 (read off the curve) (Human-CD24-His): ~0.03 µg/mL
